This test deals with NCI-H322M lung. As to the kind of experiment: NCI tumour cell line growth inhibition, 48 h.

Molecules are shown by their SMILES.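 Cells were grown in 96-well plates and exposed to each compound for 48 hours at five concentrations; endpoints were interpolated linearly between bracketing concentrations, or set to the highest concentration if not reached. GI50 is the concentration that inhibits growth by half. TGI: concentration producing complete growth inhibition.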 A value given as a limit tells only on which side of the number the result lay.

Regarding `COc1ccc(N(C)c2cc(C#N)nc3ccccc23)cc1/C=C/C(=O)NO`, the GI50 is less than 0.01 µM and the TGI came out at 25.6 µM.

Regarding `N#Cc1c(-c2ccc(F)cc2)nc(SCc2ccc(F)cc2)nc1N1CCNCC1`, the GI50 was 14 µM and the TGI was 27.2 µM.

For `COC(=O)C[C@](O)(CCCC(C)C)C(=O)O[C@H]1C(OC)=C[C@@]23CCCN2CCc2cc4c(cc2[C@@H]13)OCO4`, the GI50 is 6.95 µM and the TGI came out at 25.6 µM.
